# Experimental data reported in the RNAGym collection of RNA variant scans (doi:10.1093/nar/gkz1192).
# The source gives no read counts; variants with many changes may rest on few reads.
# B1: CPEB3 Ribozyme (parent)
# chain: UAACAGGGGGCCACAGCAGAAGCGUUCACGUCGCAGCCCCUGUCAGAUUCUGGUGAAUCUGCGAAUUCUGCUGUAUAUCUC
# Variants of: B1
# Test: self-cleavage, relative activity (ratio to wild type); higher = more cleavage; in vitro, sequencing
# Summary of the method: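 For each CPEB3 ribozyme variant, relative activity is its cleaved/total read fraction divided by the unmutated ribozyme's. Barcoded error-prone PCR libraries were transcribed by T7 RNA polymerase (5 hours, 37°C) and held in DNase I for 15 min before an EDTA stop, with cleavage occurring throughout. Template-switching reverse transcription and Illumina sequencing were used to read the RNAs. A 5-read minimum applied, and results are the mean of three batches.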
row,Variant,self-cleavage
1,UAACUGGGGGCAACAGCAGAAGCGUUCACGUCGCAGCCCCUGUCAGAUUCUGGCGAAUCUGCGAAUUCUGUUAUAUAUCUC [A5U C12A U54C C71U G73A],1.04
2,UAACUAGGGGCCACUGCGGAAGCGUUCACGUCGCUGCCCCUGUCAGAUUCUGGUGAAUCUGCGAAUUCUGCUGCAUAUCUC [A5U G6A A15U A18G A35U U74C],0.09
3,UAACUAGGGACCACGGCAGAAGCGUUCACGUCGCAGCCCCUGUCAGAUUCUGGUGAAUCUGCGAAUUCUGCUGUAUAUCUC [A5U G6A G10A A15G],0.41
4,UAACUUGGGGCCACAGCAGAAGCGUUCACGUCGCAGCCCCAGUCAGAUUCUGGUGAAUCUGCGAAUUCUGCUGUAUAUCUC [A5U G6U U41A],0.39
5,UAACUGGGGGCCACAGCAGAAGCGUUCACGUCGCAGCCCCUGUCAGAUUUUGGUGAAUCUGCAAAUUCUGCUGUAUAUCAC [A5U C50U G63A U80A],1.1
6,UAACUGGGGGCCACAGCAGAAGCGUUCACGUCGCAGCCCUUGUCAGUUUCUGGUGAACCUGCGAAUUCUGCUGUAUAUCCC [A5U C40U A47U U58C U80C],0.33
7,UAACUGGGGGCCAUAGCAGGAGCGUUCACGUCGCAGCCCCUGUCAGAUUCUGGUGAAUCUGCGAAUUCUGCUGUAUAUCUC [A5U C14U A20G],0.57
8,UAACUAGGGGCCACAGCAGAAGCGUUCACGUCGCAGCCCCUGUCAGAUUCUGGUGAAUCUGCGAAUUCUGCCGUAUUUCUC [A5U G6A U72C A77U],0.52
9,UAACUGGGGGCCACAGCAGAAGCGUUCACGUCGCAGCCCAUGUCAGAUUCUGGUGAAUCUGCGGACUUUGCUGUAUAUCUC [A5U C40A A64G U66C C68U],0.2
10,UAACUGGGGGCUACGGCAGAAGCGUUCACGCCGCAGCCCCUGUCAGACCCCGGUGAAUCUGCGAAUUCUGCUGUAUAUCUC [A5U C12U A15G U31C U48C U49C U51C],0.07
11,UAACUGAGGGCCACGGCAGAAGCGUUCACGUCGCAGCCCCUGUCAGAUUCUGGUGAAUCUGCGAAUUCUGCUGUAUAUCUC [A5U G7A A15G],0.4
12,UAACUAGGGGCCACAGCAGAAGCGUUCACGUCGCAGCCCCUGACAGAUUCUGGCGAAUCUGCGAAUUCUGCUGUAUAUCAC [A5U G6A U43A U54C U80A],0.56
13,UAACUGGGGGGCACAGCAGAAGCGCUCACGUCGCAGCCCCCGCCAGAUCCUGGUGAAUCUGCGAAUUCUGCUGUACAUCUC [A5U C11G U25C U41C U43C U49C U76C],0.12
14,UAACUAGGGGCCACAGCAGAAGCGUUCACGUCGCAGCCCCUGUCAGAUCCCUGUGAAUCUGCGAAUACUGCUGUAUAUCUC [A5U G6A U49C U51C G52U U67A],0.08
15,UAACUAGGGGCCACAGCAGAAGCGUUCACGUCGCAGCCCCUGUCAGAUUCUGGUGAAUCUGCGGACUCUGCUGUAUACCUC [A5U G6A A64G U66C U78C],0.44
16,UAACUGAGGGCCACAGCAGAAGCGUCCACGUCGCAGCCCCUGUCGGAUUCUGGUGAAUCUGCGAAUUCUGCUGUAUAUCUC [A5U G7A U26C A45G],0.25
17,UAACUUGGGGCCACAGCAGAAGCGUCCAUGUCGCAGCCCCUGUCAGAUUCAGGUGAAUCUGCGAAUUCUGCUGUAUAUCUC [A5U G6U U26C C29U U51A],0

row,Variant,self-cleavage
1,UAACUGGGGGCAACAGCAGAAGCGUCCACGUCGCAGCCCCAGCCAGAUUCUGGCGAAUCUGCGAAUUCUGCUGUACAUCUC [A5U C12A U26C U41A U43C U54C U76C],0.07
2,UAACUGGGGGUCGCAGCAGAAGCGUUCACGUCGCAGCCCCUGUCAGGUCCUGGUGAAACUGCGAAUUCUGCUGUAUAUCCC [A5U C11U A13G A47G U49C U58A U80C],0.31
3,UAACUGGGGGCUACAGCAGUAGCGUCCACGUCGCAGCCCGUGUCAGAUUCUGGCGAAUCUGCGAAUUCUGCUGUAUAUCUC [A5U C12U A20U U26C C40G U54C],0.05
4,UAACUGGGGGCCACAGCAGAAGAGUUCACGGCGCUACCCCUGUCAGAUUCUGGUGAACCUGCGAAUUCUGCCGUAUAUCUC [A5U C23A U31G A35U G36A U58C U72C],0.08
5,UAACUGGGGGCCACAGCAGAAGCGUUCAAGUCGCGGCCCCUGUCAGAUUCUGGUGAAUCUGCGAAUUCCGCUGCAUAUCUC [A5U C29A A35G U69C U74C],0.74
6,UAACUGGGGGCCACAGCAGAAGUGUACACGUCCCAGCCCCUGACAGAUUCUGGUGAAUCCGCGAAUUCUGCUGUAUAUCUC [A5U C23U U26A G33C U43A U60C],0.13
7,UAACUGGGGGCCACAGCAGAAGCGUUUACGUCGCAGCCCCUGUCAGAUUCUGGUGAAUCUGCGAAUUCUGCUGUAUACCAC [A5U C27U U78C U80A],0.14
8,UAACUGGGGGCAACAGCAGAAGCGUUCACGUCGCAGCCCCUGUCAGAUUCUGGUGAAACUGCGAAUUCUGCGGUAUAUCUC [A5U C12A U58A U72G],0.39
9,UAACUGGGGGCCACAGCAGAAGCGUUCACGUCGCAGCCCCUGUCAGAUUCUGGUGAAUCUGCGAAUUUUGCUGUACAUCUC [A5U C68U U76C],1.06
10,UAACUGGGGGCCAUAGCAGAAGCGUUCACAUCGCAGCCCCUGCCAGAUUCUGGUGAAUCUGCGAAUUCUGCUGUAUACCUC [A5U C14U G30A U43C U78C],0.06
11,UAACUGAGGGCCACAGCAGAAGCGUUCACGUCGCAGCCCCUGACAGAUUCUGGUGAGUCUGCGUAUUCUGCUGUAUAUCUC [A5U G7A U43A A57G A64U],0.06
12,UAACUGGGGGCCACAGAAGAAGCGUUCACGUCGCAGCCCCUGCCAGAUUCUGGUGAAUCUGCGAAUUCUGCUGUAUAUCUC [A5U C17A U43C],0.35
13,UAACUGAGGCCCACAGCGGAAGCGUUCACGUCGCAGCCCCUGCCAGAUUCUGGUGAAUCUGCGAAUUCUGCUGUAUAUCUC [A5U G7A G10C A18G U43C],0.04
14,UAACUGGGGGUCACAGCAGAAGCGUUCACGACGCAGCCCUUGUCAGAUUCUGGUGAAUCUGCGAUUUCUGCUGUAUAUCUC [A5U C11U U31A C40U A65U],0.21
15,UAACUGGGGGCAACGGCAGAAGCGUUCACGUAGCAGCCCCUGUCAGAUUCUGGUGAAUCUGCGAAUUCUGCUGUAUAUCUC [A5U C12A A15G C32A],0.2
16,UAACUGGGGGCCACAGGAGAAGCGUCCAUGUCGCAGCCCCUGUCAGAUUCUGGUGAGUCUGCGAAUUCUGCUGUAUAUCUC [A5U C17G U26C C29U A57G],0.3
17,UAACUGAGGGCCACAGCAGAAGCGAUCUCGUCGCAGCCCCUGUCAGAUUCAGGUGAAUCUGCGAAUUCUGCUGUAUAUCUC [A5U G7A U25A A28U U51A],0.28
